This is an account of results in PMC10577379, “Isolation of anticancer bioactive secondary metabolites from the sponge-derived endophytic fungi Penicillium sp. and in-silico computational docking approach” (Frontiers in Microbiology, 2023).

Bounds are passed on as bounds.

The test system of assay [1] is Influenza A virus H1N1 (ATCC, VR-1520). Briefly: Antiviral CPE inhibition assay. The following applies: H1N1, 48 h, read-out: Antiviral IC50 H1N1.
The test system of assay [2] is Influenza A virus H3N2 (ATCC, VR-1679). Description: Antiviral CPE inhibition assay. As to conditions: H3N2, 48 h, read-out: Antiviral IC50 H3N2.

In general, IC50 refers to the concentration that gives 50% inhibition. Take `CC12CCCC(O1)c1c(cc3c(c1O)C(=O)c1c(O)cc(O)cc1C3=O)O2` (stereo not drawn) [Compound 1, averufin]: the IC50 in assay [1] and in assay [2] was over 50 nM throughout.
In the case of `CCCCC[C@@H](c1ccc(Oc2cc(C)cc(O)c2)cc1)c1c(O)cc2c(c1O)C(=O)c1cc(O)cc(O)c1C2=O` [Compound 2, aspergilol-A], the IC50 in assay [1] and in assay [2] was over 50 nM each time.
With `COC(=O)c1cc(O)cc(OC)c1C(=O)c1c(O)cc(C)cc1O` [Compound 3, sulochrin], the IC50 in assay [1] and in assay [2] was over 50 nM each time.
Take `COc1cc(O)cc2c1C(=O)c1c(O)cc(C)cc1C2=O` [Compound 5, methyl emodin]: the IC50 in assay [1] and in assay [2] was over 50 nM in each case.
Regarding `Cc1cc(O)cc(Oc2cc(C)cc(O)c2)c1` [Compound 7, diorcinol], the concentration for half-maximal inhibition (IC50) in assay [1] and in assay [2] was over 50 nM in each case.
On to `CCOC(=O)C1=C[C@@H](OC(CC)CC)[C@H](NC(C)=O)[C@@H](N)C1` [Tamiflu, reference compound], for which the IC50 in assay [1] came to 15.2 nM; in assay [2] it was 17.6 nM.
